Measured values: PubChem BioAssay AID1030 (National Center for Advancing Translational Sciences (NCATS), 2008)
The campaign covered roughly 220,000 compounds. About 16,000 (7.3%) were called active. The shares of active, inactive and inconclusive entries below differ from those in the screen. The call rests on the fitted dose curve; in most records, active means well fitted inhibition curve with a large enough effect (not every such curve was filed as active); inconclusive means small, poorly fitted or top-dose-only effect, or another doubt; inactive means no such curve, though single readings can be large or run the other way. Potencies of inconclusive entries are left out as doubtful fits.

The molecules below were run against Aldehyde dehydrogenase 1A1 (Homo sapiens) (UniProt P00352) (assay: qHTS Assay for Inhibitors of Aldehyde Dehydrogenase 1 (ALDH1A1)). Settings: Purified ALDH1A1, NADH fluorescence, propionaldehyde substrate; series mostly up to 75.3 µM.
UniProt P00352, sequence (P00352 whole entry, looked up): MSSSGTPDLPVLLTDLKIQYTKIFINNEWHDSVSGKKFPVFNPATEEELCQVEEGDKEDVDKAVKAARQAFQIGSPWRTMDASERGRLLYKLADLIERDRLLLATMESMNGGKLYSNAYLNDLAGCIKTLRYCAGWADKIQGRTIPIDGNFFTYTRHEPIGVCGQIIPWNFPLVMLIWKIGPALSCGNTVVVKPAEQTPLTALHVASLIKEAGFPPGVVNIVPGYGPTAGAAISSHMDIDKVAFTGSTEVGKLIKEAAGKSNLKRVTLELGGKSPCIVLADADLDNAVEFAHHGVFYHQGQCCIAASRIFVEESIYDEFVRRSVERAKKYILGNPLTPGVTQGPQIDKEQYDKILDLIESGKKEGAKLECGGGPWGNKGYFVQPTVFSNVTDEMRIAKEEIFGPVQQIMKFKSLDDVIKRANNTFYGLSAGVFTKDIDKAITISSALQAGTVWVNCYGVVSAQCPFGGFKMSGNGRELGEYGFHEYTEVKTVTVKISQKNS
Potency means the concentration at half of the fitted maximal effect; tags describe the fitted curve by direction and shape.
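Wherever activity, negative = inhibition is given: plate controls were no enzyme wells and a reference inhibitor.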

| SMILES | Potency | activity, negative = inhibition |
| --- | --- | --- |
| CCOC(=O)c1nn(-c2ccc(F)cc2)c2nc(Nc3ccccc3)cc(=O)n12 | inconclusive [inhibitor, single point] |  |
| CCOc1ccc(C(C)NC(=S)NC2CCCCC2)cc1 (configuration not stated) | inconclusive [inhibitor, single point] |  |
| Cc1ccc(S(=O)(=O)Nc2ccccc2CNc2cccc(C)n2)cc1 | inactive |  |
| O=C(Nc1ccc2c(c1)OCO2)C1CC(c2ccc(F)cc2)=NO1 (configuration not stated) | inconclusive [inhibitor, single point] |  |
| Cc1ccc(S(=O)(=O)NC(C(=O)N2CCOCCOCCOCCOCC2)c2ccccc2)cc1 (configuration not stated) | inactive |  |
| N#CCCn1c(=O)c(-c2ccc(F)cc2)nc2cnc(Oc3cccc(Cl)c3)nc21 | inconclusive [inhibitor, single point] |  |
| COC(=O)/C=C1/SC(=NC(=O)c2ccccc2)NC1=O | inconclusive [inhibitor, single point] |  |
| Clc1ccc(-n2cccc2CN2CCc3c([nH]c4ccccc34)C2c2ccccn2)nc1 (configuration not stated) | active: 14.1 µM |  |
| CC1(C)N=C(SCC(=O)Nc2ccc(Cl)cc2Cl)C(c2ccccc2)=N1 | inconclusive [inhibitor, single point] |  |
| COc1ccc(CCNS(=O)(=O)c2ccc3c(c2)OCCO3)cc1 | inactive |  |
| CCC(C)(C)NC(=O)C(c1ccco1)N(C(=O)CNC(=O)c1cccs1)c1cccnc1 (configuration not stated) | inconclusive [inhibitor, single point] |  |
| O=C1C2C3C=CC(CC3)C2C(=O)N1c1ccc2c(c1)OCO2 (configuration not stated) | inconclusive [inhibitor, single point] |  |
| O=C(Cc1cccs1)N1CCC(c2nc3c(nnn3Cc3ccc(F)cc3)c(=O)[nH]2)CC1 | inactive |  |
| CC1CCCCC1NC(=O)/C(C#N)=C/C=C/c1ccccc1[N+](=O)[O-] (configuration not stated) | inconclusive [inhibitor, full curve] |  |
| COc1ccccc1CNC(=O)CN(c1ccc(C)cc1)S(=O)(=O)c1c(C)nn(C)c1C | inconclusive [inhibitor, partial curve] |  |
| O=C1N=C(N2CCOCC2)S/C1=C/c1ccc(-c2ccc(F)cc2)o1 | inactive |  |
| CC1CC1C(=O)OCc1cc(=O)n2cc(Br)ccc2n1 (configuration not stated) | inactive |  |
| COC(=O)CN1C(=O)C(O)(CC(=O)c2ccc(C)o2)c2ccccc21 (configuration not stated) | active: 7.94 µM |  |
| c1cn2cc(-c3ccc4c(c3)OCO4)nc2s1 | active: 8.91 µM |  |
| O=C(c1cnn(-c2ccccc2)c1)c1ccccc1O | inactive |  |
| O=C(Nc1ccccc1N1CCOCC1)c1ccc(N2CCOCC2)c([N+](=O)[O-])c1 | inconclusive [inhibitor, partial curve, poor fit] |  |
| COc1cccc(CNC(=O)CNC(=S)N(Cc2ccccc2)Cc2ccccc2F)c1 | inconclusive [inhibitor, partial curve] |  |
| Cc1ccc(-c2cc(-c3ccccc3Cl)c(C#N)c(N)n2)o1 | inconclusive [inhibitor, partial curve] |  |
| Clc1ccccc1OCc1nnc(-c2ccccc2Br)o1 | inconclusive [inhibitor, single point] |  |

| SMILES | Potency | activity, negative = inhibition |
| --- | --- | --- |
| COc1ccc(-c2nc(C#N)c(N3CCN(c4ccccc4)CC3)o2)cc1 | inconclusive [inhibitor, partial curve] |  |
| CO[C@H]1COC(=O)[C@@H](CCSC)NC(=O)C/C=C\[C@@H](C)[C@H](OC)COC(=O)[C@@H](OCc2ccccc2)/C=C\[C@@H]1C |  | inactive: -5.87% [at 13.5 µM] |
| O=C1CC(Sc2ncccn2)C(=O)N1c1ccccc1C(F)(F)F (configuration not stated) | active: 20 µM |  |
| COc1ccc(C2C(=O)N(C3CCCCC3)CC(=O)N2CC2COc3ccccc3O2)cc1 (configuration not stated) | inactive |  |
| CCc1cc(/C(Cc2ccc3ccccc3n2)=N\O)c(O)cc1O | inactive |  |
| Clc1ccc2nc3ccccn3c2c1 | inconclusive [inhibitor, partial curve] |  |
| COc1ccccc1CCC(=O)OCC(=O)Nc1ccc(S(N)(=O)=O)cc1 | inconclusive [inhibitor, single point] |  |
| COc1ccccc1-c1nnc(NC(C)=O)s1 | inconclusive [inhibitor, single point] |  |
| O=S(=O)(c1ccccc1)N(C1=NCCS1)S(=O)(=O)c1ccccc1 | active: 8.91 µM |  |
| CCOc1ccc(NC(=S)N2CCN(CCN3C(=O)c4cccc5cccc(c45)C3=O)CC2)cc1 | inconclusive [inhibitor, single point] |  |
| C/C(=N\NC(=S)NCc1ccccc1)c1ccc(Br)cc1 | inconclusive [inhibitor, partial curve, poor fit] |  |
| Cc1ccc(CN2CCN(Cc3ccc4cc(F)ccc4n3)CC2CCO)o1 (configuration not stated) | inconclusive [inhibitor, single point] |  |
| COc1ccc(-c2nc(C#N)c(NCCCN3CCOCC3)o2)cc1 | inconclusive [inhibitor, full curve] |  |
| C/C(CC(=O)NC1CCCC1)=N\NC(=O)c1ccc([N+](=O)[O-])c(Cl)c1 | inconclusive [inhibitor, partial curve] |  |
| O=C(Nc1cc(SCC(O)CO)cc([N+](=O)[O-])c1)c1ccc(-n2cnnn2)cc1 (configuration not stated) | inconclusive [inhibitor, single point] |  |
| COC(=O)C1=C(CSCc2ccco2)NC(=O)NC1c1cc(C)ccc1C (configuration not stated) | inconclusive [inhibitor, single point] |  |
| CCCCn1c(=O)nc2n(-c3ccc(Cl)cc3)c3ccccc3cc-2c1=O | inconclusive [inhibitor, partial curve] |  |
| Cc1nn(-c2ccccc2)c(C)c1NC(=O)Cc1cccs1 | inactive |  |
| CCOC(=O)c1c(NC(=O)COC(=O)c2ccncc2)sc(C)c1C | inconclusive [inhibitor, single point] |  |
| CCOC(=O)c1ccc(CNCc2ccc(Br)cc2)cc1 | inactive |  |
| CC(C)Cn1c(N)c(C(=O)COC(=O)c2cc(C(F)(F)F)nc3c(C(F)(F)F)cccc23)c(=O)n(C)c1=O | inactive |  |
| Cn1c(SCC2CCCCC2)nnc1-c1ccncc1 | inconclusive [inhibitor, single point] |  |
| Cc1cc(C)nc(NS(=O)(=O)c2ccc(NC(=S)NC(=O)c3cccnc3)cc2)n1 | inactive |  |
| Nc1nsc2ccccc12 | inconclusive [inhibitor, single point] |  |

| SMILES | Potency | activity, negative = inhibition |
| --- | --- | --- |
| Cn1cc(C=C2C(=O)Nc3cccnc32)c2ccccc21 | inactive |  |
| Oc1ccccc1-c1cc(-c2ccccc2Cl)[nH]n1 | inactive |  |
| c1ccn2cc(C34CC5CC(CC(C5)C3)C4)nc2c1 | inconclusive [inhibitor, partial curve] |  |
| Cc1ccn2c(NC3CCCC3)c(-c3ccncc3)nc2c1 | inconclusive [inhibitor, partial curve] |  |
| C/C(=N/N=C(/N)SCc1ccccc1)C(C)(C)C | inconclusive [inhibitor, single point] |  |
| CN(C)c1ccc(-c2nnc(SCC3CCCO3)n2C)cc1 (configuration not stated) | inconclusive [inhibitor, single point] |  |
| CCn1c(COc2cccc3ccccc23)nnc1SCC(N)=O | inactive |  |
| COc1ccc(CNC(=O)C2CCN(S(=O)(=O)c3cc(OC)ccc3OC)CC2)cc1 | inconclusive [inhibitor, single point] |  |
| O=c1c2c3c(sc2ncn1/N=C/c1cccnc1)CCCC3 | inconclusive [inhibitor, partial curve] |  |
| Cc1cccc(C)c1NC(=O)CSc1nnc(-c2ccco2)c(-c2ccco2)n1 | active: 7.08 µM |  |
| COc1ccccc1-c1nccc(NCc2ccccc2)n1 | inactive |  |
| Cc1noc(C)c1C(=O)NNc1ccc(C(C)C)cc1 | active: 11.2 µM |  |
| CC(C)N1CCN(Cc2cccn2-c2ccccn2)CC1CCO (configuration not stated) | inactive |  |
| O=C(Nc1nc2ccccc2s1)c1cc(-c2ccco2)nc2ccccc12 | inconclusive [inhibitor, partial curve] |  |
| CCCn1c(SCC(=O)Nc2nc(-c3ccc(OC)cc3)cs2)nc2c1c(=O)n(C)c(=O)n2C | inactive |  |
| CCC(c1nnnn1Cc1ccc(OC)cc1)N(CCCO)Cc1cc2cc3c(cc2[nH]c1=O)OCO3 (configuration not stated) | inconclusive [inhibitor, single point] |  |
| COc1cc(N/C=C2\CC(=O)NC(C)=C2C#N)cc(OC)c1OC | inconclusive [inhibitor, partial curve] |  |
| COc1ccc(C(=O)NCCc2cc3c(OC)ccc(OC)c3[nH]c2=O)cc1OC | inconclusive [inhibitor, single point] |  |
| CCC(Sc1nc2sc(C(=O)OC)c(C)c2c(=O)n1N)C(=O)N(CC)CC (configuration not stated) | inconclusive [inhibitor, single point] |  |
| COC(=O)C(C)N1C(=O)S/C(=C\c2cc(C)n(-c3ccccn3)c2C)C1=O (configuration not stated) | active: 22.4 µM |  |
| Cc1ccc2c(c1)c1ncnc(N3CCC4(CC3)OCCO4)c1n2C | inconclusive [inhibitor, partial curve] |  |
| CCN(CC)CCCNC(=O)CCC(=O)Nc1ccc2nc(N3CCCCC3)cc(C)c2c1 | inconclusive [inhibitor, single point] |  |
| CC(C)(C)N(Cc1ccccc1)C(=O)c1ccc(Cl)cc1[N+](=O)[O-] | inactive |  |
| CCOC(=O)N1CCN(C(=O)CS(=O)Cc2nc(-c3ccc(C)cc3)oc2C)CC1 (configuration not stated) | inconclusive [inhibitor, partial curve, poor fit] |  |
